The target of test [1] is CgHspB1C145S, CgHspB1 mutant with Cys145 replaced by Ser (Chinese hamster). In words: AUC; sedimentation velocity, 40 °C, 0.05 mg/mL (table head prints 0.50 mg/mL), with DTT.
Test [2] shares this target. In words: AUC; sedimentation velocity, 40 °C, 0.05 mg/mL (table head prints 0.50 mg/mL), without DTT.
Test [3] addresses HspB1 from Chinese hamster, wild type (CgHspB1WT) (Chinese hamster). The experiment in a line: AUC; sedimentation velocity, 40 °C, 0.5 mg/mL, with DTT.
Test [4] has the same target. In words: AUC; sedimentation velocity, 40 °C, 0.05 mg/mL (table head prints 0.50 mg/mL), with DTT.
The target is the same in test [5]. In words: AUC; sedimentation velocity, 40 °C, 0.5 mg/mL, without DTT (series with and without DTT).
For test [6] the target is unchanged. In words: AUC; sedimentation velocity, 40 °C, 0.05 mg/mL (table head prints 0.50 mg/mL), without DTT.
For test [7] the target is unchanged. In words: AUC; sedimentation velocity, Rayleigh interference optics, 40,000 rpm, buffer containing 20% ethylene glycol; 4 °C, 0.1 mg/mL.
For test [8] the target is unchanged. The experiment in a line: AUC; sedimentation velocity, Rayleigh interference optics, 40,000 rpm, buffer containing 20% ethylene glycol; 25 °C, 0.1 mg/mL.
For test [9] the target is unchanged. The experiment in a line: AUC; sedimentation velocity, Rayleigh interference optics, 40,000 rpm, buffer containing 20% ethylene glycol; 40 °C, 0.1 mg/mL.
The target is the same in test [10]. The experiment in a line: AUC; sedimentation velocity, Rayleigh interference optics, 40,000 rpm, buffer containing 20% ethylene glycol; 40 °C, 0.5 mg/mL.

Some values that stand alone complete this part of the results.

As to “CgHspB1C145S, CgHspB1 mutant with Cys145 replaced by Ser (natural protein)”, the stoichiometry N (commonly a count of units in the complex or per binding partner) in test [1] (peak a) was 3; in [1] (peak b), 16; in [1] (peak c) it was 22; in test [2] (peak a) it was 5; in [2] (peak b), 22.
For “HspB1 from Chinese hamster, wild type (CgHspB1WT) (natural protein)”, the stoichiometry N in test [3] (c(s20,w) peak a) stood at 2; in test [3] (c(s20,w) peak b) it was 7; in test [3] (c(s20,w) peak c), 13; in test [3] (c(s20,w) peak d) it was 18; in test [3] (c(s20,w) peak e), 22; in test [3] (c(s20,w) peak f), 30. Also, the stoichiometry N in [4] (c(s20,w) peak a) stood at 2; in [4] (c(s20,w) peak b), 6; in test [4] (c(s20,w) peak c), 9; in test [4] (c(s20,w) peak d), 14; in test [4] (c(s20,w) peak e) it was 32; in [5] (c(s20,w) peak a), 2. The stoichiometry N is 7 in test [5] (c(s20,w) peak b); 12 in test [5] (c(s20,w) peak c); 20 in test [5] (c(s20,w) peak d); 26 in test [5] (c(s20,w) peak e); 36 in [5] (c(s20,w) peak f); 2 in [6] (c(s20,w) peak a). Further, the stoichiometry N in test [6] (c(s20,w) peak b) worked out at 6; in [6] (c(s20,w) peak c) it was 11; in test [6] (c(s20,w) peak d), 18; in test [6] (c(s20,w) peak e), 29; in test [7] (peak a), 7; in test [7] (peak b), 19. Further, the stoichiometry N amounted to 28 in test [7] (peak c); 6 in [8] (peak a); 13 in test [8] (peak b); 19 in [8] (peak c); 2 in test [9] (peak a); 6 in test [9] (peak b). Besides, the stoichiometry N in test [9] (peak c) stood at 12; in [9] (peak d) it was 17; in test [9] (peak e) it was 26; in [9] (peak f), 34; in test [10] (peak b), 6; in test [10] (peak c), 14. The figures for the stoichiometry N in [10] (peak d), in test [10] (peak e) and in test [10] (peak f) were 21, 24 and 36, respectively.

The values above are taken from PMC8509488.
